Experimental data from the supplement of paper PMC12645437, “Orthogonal IMiD-Degron Pairs Induce Selective Protein Degradation in Cells” (ACS Chemical Biology, 2025).
The other results are listed elsewhere or left out.

B1: Q9UKT9 (peptide)
chain: FWCEICGHKFTQKGNLLRHIKL
B2: Q9UKT9 (peptide)
chain: FVCDVCGACFTQKGNLLRHIKL
B3: Q9UKT9 (peptide)
chain: FTCEVCGAQFTQKGNLLRHIKL
B4: Q9UKT9 (peptide)
chain: FVCDVCGAGFTQKGNLLRHIKL
B5: Q9UKT9 (peptide)
chain: FRCEVCGADFTQKGNLLRHIKL
B6: Q9UKT9 (peptide)
chain: FACSVCGHTFTQKGNLLRHIKL
B7: Q9UKT9 (peptide)
chain: LFCPICGFGCTQKGNLLRHIKL
B8: Q9UKT9 (peptide)
chain: FWCPQCGALFTQKGNLLRHIKL
B9: Q9UKT9 (peptide)
chain: FGCPICGAVFTQKGNLLRHIKL
B10: Q9UKT9 (peptide)
chain: FMCNQCGHSFTQKGNLLRHIKL
B11: Q9UKT9 (peptide)
chain: FACEICGASFTQKGNLLRHIKL
B12: Q9UKT9 (peptide)
chain: FECEICGHCFTQKGNLLRHIKL
B13: Q9UKT9 (peptide)
chain: LACPICGFYCTQKGNLLRHIKL
B14: Q9UKT9 (peptide)
chain: FICSVCGHNFTQKGNLLRHIKL
B15: Q9UKT9 (peptide)
chain: FSCNVCGACFTQKGNLLRHIKL
B16: Q9UKT9 (peptide)
chain: FICEVCGASFTQKGNLLRHIKL
B17: Q9UKT9 (peptide)
chain: FMCEQCGATFTQKGNLLRHIKL
B18: Q9UKT9 (peptide)
chain: FCCEVCGAHFTQKGNLLRHIKL
B19: Q9UKT9 (peptide)
chain: FDCNQCGADFTQKGNLLRHIKL
B20: Q9UKT9 (peptide)
chain: FVCPQCGAIFTQKGNLLRHIKL
B21: Q9UKT9 (peptide)
chain: FDCPICGHQFTQKGNLLRHIKL
B22: Q9UKT9 (peptide)
chain: FSCNQCGAHFTQKGNLLRHIKL
B23: Q9UKT9 (peptide)
chain: LHCNQCGFNCTQKGNLLRHIKL
B24: Q9UKT9 (peptide)
chain: FYCEICGARFTQKGNLLRHIKL
B25: Q9UKT9 (peptide)
chain: FMCEICGACFTQKGNLLRHIKL
B26: Q9UKT9 (peptide)
chain: FKCNVCGARFTQKGNLLRHIKL
B27: Q9UKT9 (peptide)
chain: FMCNICGAVFTQKGNLLRHIKL
B28: Q9UKT9 (peptide)
chain: FECPQCGAKFTQKGNLLRHIKL
B29: Q9UKT9 (peptide)
chain: FACPQCGANFTQKGNLLRHIKL
B30: Q9UKT9 (peptide)
chain: FLCPVCGARFTQKGNLLRHIKL
B31: Q9UKT9 (peptide)
chain: LCCNQCGFVCTQKGNLLRHIKL
B32: Q9UKT9 (peptide)
chain: FCCPVCGATFTQKGNLLRHIKL
B33: Q9UKT9 (peptide)
chain: FCCDQCGARFTQKGNLLRHIKL
B34: Q9UKT9 (peptide)
chain: FCCEICGHCFTQKGNLLRHIKL
B35: Q9UKT9 (peptide)
chain: FHCDICGAMFTQKGNLLRHIKL
B36: Q9UKT9 (peptide)
chain: FGCDICGASFTQKGNLLRHIKL
B37: Q9UKT9 (peptide)
chain: FDCNQCGRRFTQKGNLLRHIKL
B38: Q9UKT9 (peptide)
chain: FICSVCGHEFTQKGNLLRHIKL
B39: Q9UKT9 (peptide)
chain: FLCPQCGANFTQKGNLLRHIKL
B40: Q9UKT9 (peptide)
chain: FDCNQCGRAFTQKGNLLRHIKL
B41: Q9UKT9 (peptide)
chain: LRCEICGFWCTQKGNLLRHIKL
B42: Q9UKT9 (peptide)
chain: LCCEICGFCCTQKGNLLRHIKL
B43: Q9UKT9 (peptide)
chain: FTCPICGHRFTQKGNLLRHIKL
B44: Q9UKT9 (peptide)
chain: FNCPICGRQFTQKGNLLRHIKL
B45: Q9UKT9 (peptide)
chain: FYCEICGHRFTQKGNLLRHIKL
B46: Q9UKT9 (peptide)
chain: FKCNQCGHWFTQKGNLLRHIKL
B47: Q9UKT9 (peptide)
chain: FHCPICGHMFTQKGNLLRHIKL
B48: Q9UKT9 (peptide)
chain: FSCDVCGAHFTQKGNLLRHIKL
B49: Q9UKT9 (peptide)
chain: FFCNICGARFTQKGNLLRHIKL
B50: Q9UKT9 (peptide)
chain: FWCEICGRMFTQKGNLLRHIKL

target: no compound (DMSO); test: log2 fold change of degron read counts, EGFP-low vs EGFP+ sorted cells; higher = lower degron-EGFP level without compound (poor expression or instability); details: compound: DMSO control; 18 h
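Also: jurkat cells carrying a lentiviral library of mutant zinc finger degrons fused to EGFP plus mCherry, mCherry+ cells FACS sorted, degron abundance counted by next-generation sequencing.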

| Sequence | log2 fold change of degron read counts |
| --- | --- |
| B1 | -1.19 |
| B2 | -1.58 |
| B3 | -2.34 |
| B4 | -1.45 |
| B5 | -1.35 |
| B6 | -0.566 |
| B7 | 1.4 |
| B8 | 1.13 |
| B9 | -0.323 |
| B10 | -1.05 |
| B11 | -1.57 |
| B12 | -1.46 |
| B13 | 1.92 |
| B14 | -0.958 |
| B15 | -1.05 |
| B16 | -1.75 |
| B17 | -1.71 |
| B18 | -1.52 |
| B19 | 0.293 |
| B20 | 0.11 |
| B21 | -1.44 |
| B22 | -0.164 |
| B23 | 0.733 |
| B24 | -1.16 |
| B25 | -1.59 |

| Sequence | log2 fold change of degron read counts |
| --- | --- |
| B26 | -1.27 |
| B27 | 0.199 |
| B28 | -1.83 |
| B29 | -4.6 |
| B30 | 0.286 |
| B31 | 0.494 |
| B32 | -0.256 |
| B33 | -0.781 |
| B34 | -1.4 |
| B35 | -1.76 |
| B36 | -1.57 |
| B37 | -0.0328 |
| B38 | -1.61 |
| B39 | -1.69 |
| B40 | -0.497 |
| B41 | 1.25 |
| B42 | -0.0228 |
| B43 | -0.309 |
| B44 | -0.35 |
| B45 | -1.36 |
| B46 | 0.589 |
| B47 | 0.0547 |
| B48 | -1.68 |
| B49 | 0.0162 |
| B50 | 0.874 |
